Laboratory results from PubChem BioAssay AID2528 (National Center for Advancing Translational Sciences (NCATS), 2010).
“And” between values parts separate entries of the source, which are not always exact repeats. Equal entries are not always repeated. The whole screen tested about 350,000 compounds, of which about 700 (0.2%) were called active. This list was built around the results that the source calls inconclusive (neither active nor inactive); the mix of calls is not that of the screen. Calls follow the shape of the dose curve; as a rule, active = well fitted inhibition curve with a large enough effect; inconclusive = small, poorly fitted or top-dose-only effect; inactive = flat fitted curve, though single readings scatter. Potencies beside an inconclusive call are fits to weak or partial responses and may not hold up.

These compounds were tested against RecQ-like DNA helicase BLM (Homo sapiens) (UniProt P54132) (assay: qHTS Assay for Inhibitors of Bloom's syndrome helicase (BLM)). Conditions: recombinant BLM DNA unwinding, fluorescence dequenching; series mostly up to 56.1 µM.
UniProt P54132, sequence (P54132 whole entry, looked up): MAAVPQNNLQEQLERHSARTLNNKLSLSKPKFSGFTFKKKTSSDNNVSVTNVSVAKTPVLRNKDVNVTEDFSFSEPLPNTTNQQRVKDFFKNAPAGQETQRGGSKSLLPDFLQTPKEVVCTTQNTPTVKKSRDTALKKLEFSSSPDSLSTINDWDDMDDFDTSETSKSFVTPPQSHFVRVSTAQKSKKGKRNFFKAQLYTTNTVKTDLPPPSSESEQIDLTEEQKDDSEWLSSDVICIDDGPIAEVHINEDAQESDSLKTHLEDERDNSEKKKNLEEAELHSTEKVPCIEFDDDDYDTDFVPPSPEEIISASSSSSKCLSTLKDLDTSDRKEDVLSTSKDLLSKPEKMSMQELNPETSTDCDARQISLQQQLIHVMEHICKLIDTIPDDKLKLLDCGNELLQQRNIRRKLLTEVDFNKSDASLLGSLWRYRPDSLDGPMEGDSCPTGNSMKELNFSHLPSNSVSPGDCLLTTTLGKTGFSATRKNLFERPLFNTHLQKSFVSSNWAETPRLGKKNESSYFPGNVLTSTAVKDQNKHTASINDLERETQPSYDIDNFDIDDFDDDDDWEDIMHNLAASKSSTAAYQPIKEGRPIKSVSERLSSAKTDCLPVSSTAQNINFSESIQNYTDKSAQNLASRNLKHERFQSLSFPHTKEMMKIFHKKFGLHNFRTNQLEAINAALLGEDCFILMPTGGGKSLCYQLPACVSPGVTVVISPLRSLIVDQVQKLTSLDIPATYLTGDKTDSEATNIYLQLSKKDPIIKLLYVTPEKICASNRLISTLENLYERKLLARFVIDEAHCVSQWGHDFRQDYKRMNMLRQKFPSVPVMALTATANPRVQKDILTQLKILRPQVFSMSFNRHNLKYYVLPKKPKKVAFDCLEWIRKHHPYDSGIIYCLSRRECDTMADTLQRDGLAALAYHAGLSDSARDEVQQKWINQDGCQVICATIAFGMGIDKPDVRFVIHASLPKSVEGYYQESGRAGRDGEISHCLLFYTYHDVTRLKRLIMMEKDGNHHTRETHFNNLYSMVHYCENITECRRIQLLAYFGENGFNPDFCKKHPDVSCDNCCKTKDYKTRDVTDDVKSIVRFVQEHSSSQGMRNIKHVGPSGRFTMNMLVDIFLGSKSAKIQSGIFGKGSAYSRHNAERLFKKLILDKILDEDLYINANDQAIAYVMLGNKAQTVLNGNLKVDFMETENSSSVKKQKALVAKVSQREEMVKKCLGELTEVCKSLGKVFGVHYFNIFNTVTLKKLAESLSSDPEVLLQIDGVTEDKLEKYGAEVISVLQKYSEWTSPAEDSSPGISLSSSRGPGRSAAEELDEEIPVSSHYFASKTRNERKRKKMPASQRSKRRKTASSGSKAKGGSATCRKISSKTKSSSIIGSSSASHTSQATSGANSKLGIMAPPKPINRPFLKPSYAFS
Description: Survival of cells and the faithful propagation of the genome depend on elaborate mechanisms of detecting and repairing DNA damage. Treatment of advanced cancer relies on radiation therapy or chemotherapy, which kill cancer cells by causing extensive DNA damage. It is often found, that cancer cells develop resistance to therapy through enhanced activity of DNA repair functions; this has led to an increased interest in developing drugs that interfere with DNA repair, which could sensitize cancer cells to conventional therapy.
This validation qHTS assay pertains to human BLM, which is important in resolving abnormal DNA structures formed during replication or homologous recombination. Shutting down the expression of BLM leads to chromosomal instability and higher radiation sensitivity in cultured cells.
The validation assay was a fluorescence quenching based kinetic qHTS for BLM Helicase DNA unwinding. The activity was measured as ATP-dependent separation of a 20-bp DNA duplex extended by 30-nt single-stranded tails (forked duplex). The forked DNA substrate was tagged with rhodamine fluorophore (carboxytetramethyl rhodamine, TAMRA) and BHQ-2 (Black Hole Quencher 2) dark quencher. Strand separation results in an increase in the fluorescence of TAMRA (excitation 525 nm, emission 598 nm). This substrate construct operates in a red-shifted region where very few compound library members have been noted to fluoresce (PubChem AIDs 593 and 594). An additional feature of the assay is the inclusion of 2.5 ug/ml poly (dIdC), to reduce interference by compounds such as DNA intercalators, a major source of false inhibitors.
Ian Hickson, University of Oxford
Opher Gileadi, Structural Genomics Consortium, University of Oxford
Screening Center PI: Austin, C.P.
Screening Center: NIH Chemical Genomics Center [NCGC]
Three uL of reaction buffer (25 mM Tris-HCl (pH 8.0), 5 mM NaCl, 2 mM MgCl2, 1mM DTT, 0.01% Tween- 20, and 2.5 ug/ml poly(dI-dC), including enzyme (50 nM BLM), were dispensed into a 1536-well Greiner black assay plate via solenoid-valve based nanoliter dispensers. Compounds (23 nl each in columns 5-48) and control (23 nl each in column 2 as dose-response) were transferred via a Kalypsys pintool equipped with a 1536-pin array. The plates were incubated for 15 min at room temperature, and then 1 ul of substrates (200 nM DNA and 2 mM ATP, final concentrations) was added to start the reaction. The plate was transferred into a ViewLux high-throughput CCD imager where the reaction progress was measured in a discontinuous kinetic mode (two reads spaced 2 hours apart, with intermediate room temperature incubation of the covered assay plate) by using standard red-fluorescence optics (excitation filter 525 nm, emission filter 598 nm). Enzyme-free and vehicle (DMSO) controls were included for signal normalization.
Also: nearly all actives have a fitted effect of over 35% in size.
Potency is read from the fitted curve at half-maximal effect; tags tell the direction and shape of the fitted curve.

Row | SMILES | Potency
1 | COCCNC(=O)c1c(N)n(CCC(C)C)c2nc3ccccc3nc12 | inconclusive: 35.5 µM [inhibitor, single point]
2 | Cc1cc(C(C#N)c2ccc(Cl)cc2)c(Cl)cc1NC(=O)c1cc(I)cc(I)c1O (stereo not given) | inconclusive: 25.1 µM [inhibitor, single point]
3 | CCn1nc(-c2ccccc2)nc2c(=O)n(C)c(=O)nc1-2 | active: 1.41 µM
4 | COc1ccc(-n2c(O)c(/C=C/C=Nc3ccccc3)c(=O)[nH]c2=O)cc1 | active: 28.2 µM
5 | CC[C@@]1(O)CC(O)c2c(cc3c(c2O)C(=O)c2c(O)ccc(O)c2C3=O)C1C(=O)OC (stereo not given in full) | inconclusive: 15.8 µM [inhibitor, partial curve]
6 | CCOc1ccc(-c2nc3ccc(-c4nc5ccc(N6CCN(C)CC6)cc5[nH]4)cc3[nH]2)cc1 | inconclusive: 25.1 µM [inhibitor, single point]
7 | Cn1cccc1/C=C1/C(=O)NC(=O)N(Cc2ccc(F)cc2)C1=O | inactive
8 | O=[N+]([O-])c1cccc(CN2CCN(Cc3ccc(Cl)cc3)CC2)c1 | inactive
9 | CCC(C)NC(=O)c1c(N)n(CCCOC)c2nc3ccccc3nc12 (stereo not given) | inconclusive: 35.5 µM [inhibitor, single point]
10 | CCn1ncc(-c2ccnc3cc(C(=O)O)nn23)c1C | inconclusive: 35.5 µM [inhibitor, single point]
11 | CC(=O)c1ccc2c(c1)C1C(Cl)C(Sc3ccccc3[N+](=O)[O-])CC1C(C(=O)O)N2 (stereo not given) | inconclusive: 8.91 µM [inhibitor, partial curve]
12 | CCOc1cccc(OCC)c2c(C)[n+](CC3CCCO3)c(C)c1-2 (stereo not given) | inconclusive: 31.6 µM [inhibitor, single point]
13 | O=C(O)c1ccc2c(c1)C1C(Cl)C(Sc3ccccc3[N+](=O)[O-])CC1C(c1cccc([N+](=O)[O-])c1)N2 (stereo not given) | inactive
14 | CN[C@@H](C)[C@H](O)c1ccccc1 | inconclusive: 2.82e-05 µM [inhibitor, full curve]
15 | CC[N+](C)(CC)CCC[n+]1c(-c2ccccc2)c2cc(N)ccc2c2ccc(N)cc21 | active: 5.01 µM
16 | CC(C)=CCCC1(C)C=Cc2c(O)c3c(c(CC=C(C)C)c2O1)OC12C(=CC4CC1C(C)(C)OC2(C/C=C(/C)C(=O)O)C4=O)C3=O (stereo not given) | active: 28.2 µM
17 | C[n+]1c(-c2ccccc2)c2cc(N)ccc2c2ccc(N)cc21 | inconclusive: 31.6 µM [inhibitor, single point]
18 | CCCCCCC(=O)N/N=C/c1c(O)n(CCc2ccccc2)c(=O)[nH]c1=O | inactive
19 | COCCCn1c(N)c(C(=O)NCCC(C)C)c2nc3ccccc3nc21 | inconclusive: 35.5 µM [inhibitor, single point]
20 | Cc1cccc(OCC(=O)N2CCN(Cc3cccnc3)CC2)c1 | inactive
21 | CC1COC2=C1C(=O)C(=O)c1c2ccc2c1CCCC2(C)C (stereo not given) | inconclusive: 39.8 µM [inhibitor, single point]
22 | CCCCC/C=C\C/C=C\C/C=C\C/C=C\CCCC(=O)N[C@H](C)CO | inactive and inconclusive: 31.6 µM [inhibitor, single point]

Row | SMILES | Potency
23 | Cc1ccccc1N1C(=O)NC(=O)/C(=C/c2ccc(N3CCOCC3)o2)C1=O | inactive
24 | CCN1C(=O)/C(=C\c2ccc([N+](=O)[O-])s2)C(=O)NC1=S | inconclusive: 39.8 µM [inhibitor, single point]
25 | CCCCC/C=C\C/C=C\C/C=C\C/C=C\CCCCCC(=O)NCCO | inconclusive: 28.2 µM [inhibitor, single point]
26 | CCC(C=C[C@@H]1OC(=O)C=C[C@H]1C)=C[C@H](C)CC=CC(C)=C[C@@H](C)C(=O)[C@@H](C)[C@H](O)[C@@H](C)CC(C)=CC(=O)O | inconclusive: 1.26 µM [inhibitor, single point]
27 | NC(Cc1ccc(Oc2cc(I)c(O)c(I)c2)c(I)c1)C(=O)O (stereo not given) | inconclusive: 14.1 µM [inhibitor, partial curve]
28 | C=CCN1C(=O)NC(=O)/C(=C/c2cc3c4c(c2)CCCN4CCC3)C1=O | inconclusive: 28.2 µM [inhibitor, single point]
29 | CCCCC/C=C\C/C=C\C/C=C\C/C=C\CCCC(=O)NCc1ccoc1 | inconclusive: 31.6 µM [inhibitor, single point]
30 | COc1ccccc1-n1c(O)c(/C=N/NC(=S)Nc2ccccc2)c(=O)[nH]c1=S | inactive
31 | O=C1NC(=O)N(Cc2ccc(F)cc2)C(=O)/C1=C\C=C\c1ccco1 | inconclusive: 28.2 µM [inhibitor, single point]
32 | CCCCC/C=C\C/C=C\C/C=C\C/C=C\CCCC(=O)O | inconclusive: 25.1 µM [inhibitor, single point]
33 | C[C@]12CC[C@@H]3c4ccc(O)c(O)c4CC[C@H]3[C@@H]1CC[C@@H]2O | inactive
34 | CC[n+]1c(-c2ccccc2)c2cc(N)ccc2c2ccc(N)cc21 | inconclusive: 39.8 µM [inhibitor, single point]
35 | Cc1cc(/C=C2\C(=O)NC(=O)N(c3ccc(F)cc3)C2=O)c(C)n1-c1cccc(C(=O)O)c1 | inactive
36 | CC(=O)Nc1ccc(N=Cc2c(O)n(Cc3ccco3)c(=O)[nH]c2=O)cc1 | inconclusive: 22.4 µM [inhibitor, single point]
37 | C[C@H](CCC(=O)O)[C@H]1CC[C@H]2[C@@H]3CC[C@@H]4C[C@H](O)CC[C@]4(C)[C@H]3CC[C@]12C | inconclusive: 39.8 µM [inhibitor, single point]
38 | Cn1cccc1/C=C1/C(=O)NC(=S)N(Cc2ccc(F)cc2)C1=O | inconclusive: 31.6 µM [inhibitor, single point]
39 | CCCCn1c(NS(=O)(=O)c2ccccc2)c(C(=O)OCC)c2nc3ccccc3nc21 | active: 1.41 µM
40 | CCn1nc(-c2cccs2)nc2c(=O)n(C)c(=O)nc1-2 | active: 1.12 µM
41 | O=C(OC1Cc2c(O)cc(O)cc2OC1c1cc(O)c(O)c(O)c1)c1cc(O)c(O)c(O)c1 (stereo not given) | inconclusive: 25.1 µM [inhibitor, single point]
42 | CCC(CO)(C(=O)OC1C[N+]2(C)CCC1CC2)c1ccccc1 (stereo not given) | inactive
43 | O=C1NC(=O)N(Cc2ccccc2)C(=O)/C1=C\c1ccco1 | inconclusive: 39.8 µM [inhibitor, single point]
44 | CCN1C(=O)/C(=C/c2ccc3c(c2)CCN3CCCCl)C(=O)NC1=S | inconclusive: 20 µM [inhibitor, single point]

Row | SMILES | Potency
45 | Cc1cccc2c3c(ccc12)C1=C(C(=O)C3=O)C(C)CO1 (stereo not given) | inconclusive: 28.2 µM [inhibitor, single point]
46 | O=c1[nH]c(=S)[nH]c(O)c1N=Nc1ccc(-c2ccccc2)cc1[N+](=O)[O-] | inconclusive: 25.1 µM [inhibitor, single point]
47 | CCN1C(=O)NC(=O)/C(=C/c2cc(C)n(-c3sc(C)c(C)c3C#N)c2C)C1=O | inconclusive: 31.6 µM [inhibitor, single point]
48 | CN1CC[C@@]2(C)c3cc(O)ccc3N(C)C2O1 (stereo not given in full) | inconclusive: 35.5 µM [inhibitor, single point]
49 | CCN(CC)S(=O)(=O)c1ccc(N=Cc2c(O)n(-c3ccccc3)c(=O)[nH]c2=O)cc1 | inactive
50 | COc1ccc(CN2C(=O)NC(=O)/C(=C/c3ccc([N+](=O)[O-])o3)C2=O)cc1 | inconclusive: 31.6 µM [inhibitor, single point]
51 | OCC[n+]1c2ccccc2nc2ccc(N3CCOCC3)cc21 | inconclusive: 14.1 µM [inhibitor, partial curve]
52 | COCCNC(=O)c1c(NC(=O)c2ccc(Br)o2)n(Cc2ccccc2)c2nc3ccccc3nc12 | inconclusive: 25.1 µM [inhibitor, single point]
53 | CC(=O)O.CC(=O)O.[Cd] | inconclusive: 39.8 µM [inhibitor, single point]
54 | CCc1nnc(NC(=O)CSc2ccc(-c3ccco3)nn2)s1 | active: 14.1 µM
55 | Cc1cc(/C=C2\C(=O)NC(=O)N(c3ccc(Cl)cc3)C2=O)c(C)n1-c1sc2c(c1C#N)CCCC2 | inconclusive: 31.6 µM [inhibitor, single point]
56 | CCC(C)NC(=O)c1c(N)n(CC2CCCO2)c2nc3ccccc3nc12 (stereo not given) | inconclusive: 39.8 µM [inhibitor, single point]
57 | O=C(c1ccccc1)c1ccc(N=Nc2c(O)[nH]c(=O)[nH]c2=O)cc1 | inconclusive: 20 µM [inhibitor, partial curve]
58 | CC(C)OCCCNC(=O)c1c(N)n(Cc2cccs2)c2nc3ccccc3nc12 | inconclusive: 28.2 µM [inhibitor, single point]
59 | CCCCCCCCCCCCCCOS(=O)(=O)O | inconclusive: 28.2 µM [inhibitor, single point]
60 | Oc1ccc(Cl)cc1Cc1cc(Cl)ccc1O | inconclusive: 28.2 µM [inhibitor, single point]
61 | CN1CC[C@@]2(CCCN(C(=O)c3ccco3)C2)C1 | inactive
62 | N#CC(C#N)=NNc1ccc(OC(F)(F)F)cc1 | inconclusive: 7.08 µM [inhibitor, partial curve]
63 | Cc1cc(/C=C2/C(=O)NC(=O)N(C)C2=O)c(C)n1-c1ccccc1 | inactive
64 | O=C1NC(=O)N(Cc2ccco2)C(=O)/C1=C\c1ccc(-c2ccc(F)cc2)o1 | inconclusive: 25.1 µM [inhibitor, single point]
65 | O=C1NC(=O)N(Cc2ccccc2)C(=O)/C1=C\C=C\c1ccco1 | inconclusive: 22.4 µM [inhibitor, single point]
